Test results from ChEMBL document CHEMBL4888484, “Replenishing the malaria drug discovery pipeline: Screening and hit evaluation of the MMV Hit Generation Library 1 (HGL1) against asexual blood stage Plasmodium falciparum ,using a nano luciferase reporter read-out” (2022).
Out of some 150,000 compounds screened, about 540 (0.36%) showed an effect of 50% or more. This is one part of the list.

Each molecule was assayed on Plasmodium falciparum (assay: Primary screen in NF54 nanoGlo assay, in single point, at 2uM, 72h; a lower Z score goes with more inhibition). Conditions: timepoint 72 hour.
Type: functional, Erythrocyte

SMILES	% Inhibition [%]	Z score
CCCc1c(NC(=O)N2CCN(C3CC3)CC2)cnn1-c1cccc(C)c1	-10	0.96
Cn1ccnc1CCN1CCN(C(=O)c2ccccc2)CC1	-8	1.23
CC[C@](C)(NCc1ccccc1OC)c1nc(C)cs1	-5	0.95
CNC(=O)NC(=O)CNc1ccccc1C(F)(F)F	-3	0.56
CC(C)(O)[C@@H]1CCCN1c1nc2ccccc2[nH]1	-1	0.16
O=C(O)c1cc(-c2ccc3c(c2)OCCO3)cc(S(=O)(=O)N2CCCCCC2)c1	5	-0.67
C=CCN(C(=O)c1ccccc1)c1nc(-c2ccc(C3CCCCC3)cc2)cs1	8	-0.92
CCO[C@H]1CN(c2ncnc(Oc3cccnc3C)c2C)C[C@@H]1O	-2	0.34
CC(=O)Oc1ccc(N2C(=O)[C@@H]3C(Cc4c[nH]c5ccccc45)NC4(C(=O)Nc5c(C)cc(Cl)cc54)[C@@H]3C2=O)cc1 (stereo partly drawn)	8	-0.97
Cc1ccc([C@@H]2c3cccn3CCN2C(=O)c2ccc(F)cc2)cc1	-2	0.29
COCC1(CNCc2cc(OC)ccc2F)CCC1	6	-0.88
CCN(CC(=O)N1CCC(C2CCOCC2)CC1)C1CC1	0	0.05
CCC[C@H](NCc1cc[nH]n1)c1ncccc1Cl	-1	0.26
CC(C)N1CCCN(C[C@H]2CCOC(C)(C)C2)CC1	-5	0.86
CCOC(=O)CN(Cc1ncccn1)C(=O)[C@H](C)Oc1cccc(C#N)c1	-10	1.34
Cc1ccccc1C1(C(=O)N(C)c2cnn(C)c2)CCCC1	2	-0.34
COC1CCN([C@H]2CCC[C@H]2NC(=O)Nc2cnn(-c3ncccc3C#N)c2)C1 (stereo partly drawn)	-8	1.66
CCn1nc(C)c(CCN(C)c2ncc(NS(=O)(=O)c3cccc(F)c3)cc2C(=O)O)c1C	6	-0.55
CCN(C(=O)C(=O)Nc1cc(C)on1)C1CCCCC1	-2	0.18
C[C@H](NC(=O)c1ccccc1CC(C)(C)C)c1nc[nH]n1	7	-1.24
COc1ccc2c(c1)O[C@@H](C)CN(CCNC(=O)c1cc(C)nc(C)n1)C2	-9	1.64

SMILES	% Inhibition [%]	Z score
COC(=O)c1cccc(-c2nc(-c3cn(-c4ccc(C)cc4)nn3)no2)c1	-26	5.19
CCNC(=O)[C@H]1CCN(S(=O)(=O)c2cc(Cl)c(Cl)s2)C1	4	-0.58
Cc1c(-c2cc(-c3cnn(C)c3C)n(S(=O)(=O)c3ccc(Cl)cc3)n2)cnn1C	35	-3.92
CCNC(=O)c1ccnc(NCCc2nc(C)cc(=O)[nH]2)c1	-7	1.28
O=C(N[C@@H](Cc1ccccc1)c1ccccc1)c1cc2n(n1)CCN(Cc1ccccc1)C2=O	13	-1.43
CCN(C(=O)c1cc(F)c(F)cc1Cl)c1ccncc1	3	-0.43
COC(=O)C1=C(C(=O)OC)c2ccc(C)c3cc(C)c(n23)C=C1	2	-0.18
CO[C@H]1CN(Cc2csc3ccccc23)C[C@@H]1O	-7	1.21
COCCn1cncc1CN1CCO[C@H](C(F)(F)F)C1	4	-0.67
CO[C@H]1C[C@@H](O)C12CCN(c1nc(C(N)=O)cs1)CC2	-5	0.79
Cc1nc(-c2cccc(Cl)c2)sc1C(=O)N(CC(=O)O)C1CCOCC1	-2	0.27
CC(=O)Nc1ccc(C(=O)N2CCc3[nH]c(=O)c(C#N)cc3C2)cc1	-8	1.28
COc1c(NC(=O)C2CC23CCCc2ccccc23)c(C)nn1C (stereo not drawn)	14	-1.65
CC(=O)N(CCN1CCCCC1)[C@H]1CCCN(Cc2c(C)nn(C)c2C)C1	-4	0.57
N#Cc1cccc(CN[C@H]2CC23CCOCC3)c1	-6	0.89
CC(=O)N(Cc1nccn1Cc1ccccc1)C1CC1	-17	1.66
COC(=O)COc1ccccc1CN1CCCn2cncc2C1	6	-0.79
CC(C)C(=O)N1CCN(c2ccc(NC(=O)c3ccc4ccccc4c3)cc2Cl)CC1	4	-0.67
CN(CC[C@H]1CNCC[C@H]1CC(=O)O)c1ccc(F)cc1	-9	1.38
FC1(F)CC(Cc2noc(Cc3ccc4c(c3)CCCO4)n2)C1	-19	2.93
CN(Cc1ccc(C(=O)O)cc1)C(=O)c1cccc(N2CCCC2=O)c1	-8	1.2

SMILES	% Inhibition [%]	Z score
CC(C)c1noc(CN(C)Cc2ccccc2-c2ccco2)n1	0	-0.02
Cc1cnc(NC2CCN(Cc3ccccc3)CC2)nc1	10	-1.76
O=C(CCC1CCCC1)NCCc1noc(-c2cccnc2)n1	-2	0.19
CC(C)CCNC(=O)CC[C@H]1CCCO1	-9	0.99
c1ccc(-n2ccc(COc3ccccc3-c3nnc[nH]3)n2)cc1	29	-3.28
COCCOc1cc(=O)n2c(c1C(=O)N1CCc3ccccc3C1)CCOCC2	0	0.02
O=S(=O)(NCC12CCC(CC1)C2)C1CCC1	-3	0.35
Cc1cnn(Cc2cc(C(=O)N(C)Cc3nc4ccccc4n3C)no2)c1	40	-4.47
COc1ccc(C2CN(C(=O)c3ccc(Cl)cc3)CC2C(=O)NC2CC2)c(OC)c1 (stereo not drawn)	-10	1.23
NC(=O)c1cccc(CNc2ncnc3c2ncn3-c2ccccc2)c1	-24	2.37
CC(C)[C@H]1COC2(c3ccccc3)CCC(=O)N12 (stereo partly drawn)	-18	2.27
Cc1cc(S(=O)(=O)N2CC(C)(C)[C@H]2c2nccn2C)c(F)cc1F	2	-0.42
O=C(CN1C(=O)COc2ccc(Cl)cc21)N1CCC[C@H](O)C1	-8	1.12
O=C(NC[C@H]1CCCN(c2nccs2)C1)c1ccc2c(c1)OCO2	18	-2.23
CS(=O)(=O)C1(CNCc2cc3ccc(F)cc3[nH]2)CCCC1	2	-0.46
CC1=NS(=O)(=O)N(C)C=C1C(=O)NCc1ccc(Cl)cc1	-16	1.8
COc1cc2cc(CNCc3ccccc3Cl)c(=O)n(CC3CCCCC3)c2cc1OC	-2	0.25
O=C(Cc1ccsc1)NCc1ccc(C2CC2)nc1	20	-2.59
Cn1nccc1-c1ccc(N2CCCC2)nn1	-3	0.55
CS(=O)(=O)N1C[C@H]2CC[C@@H](C1)N(C(=O)c1cnoc1-c1ccccc1)C2	5	-0.85
O=S(=O)(c1ccc(-c2noc(/C=C/c3ccccc3Cl)n2)cc1)N1CCCC1	-6	0.9

SMILES	% Inhibition [%]	Z score
CN1CCN(Cc2cc(=O)c3cccc(F)c3[nH]2)C[C@]12CCNC(=O)CC2	-6	1.15
Cc1ccc(C)c(-c2cc(C(=O)N(CCC(=O)N(C)Cc3ccccc3)CC(C)C)no2)c1	1	-0.18
O=C(c1ccncc1)N1CCC(F)(C(=O)NCc2ccncc2)CC1	-4	0.84
CC(=O)N1CCN(C(=O)c2coc(CN(Cc3ccc(C(F)(F)F)cc3)Cc3ccc4c(c3)OCO4)n2)CC1	-14	1.37
Cc1ccc(CNC(=O)Nc2cc3c(cc2N2CCCC2)n(C)c(=O)n3C)cc1	-10	1.93
COc1cccc(OC)c1C(=O)N1CC[C@]2(OC)CC[C@H](OC)C[C@H]12	-4	0.67
Cc1cnn(CCCNc2nc3c(s2)c(C)nn3C)c1	-17	1.51
Cc1nc2ccccn2c1CNC(=O)Nc1ccnn1[C@H]1CCOC1	-8	0.96
COc1ccccc1C(CNS(=O)(=O)CC1CCCS(=O)(=O)C1)N1CCCC1 (stereo not drawn)	-6	0.74
O=C(CN1CCC[C@H]1c1nc2ccccc2s1)N1CCc2sccc2C1	-11	1.74
Cc1ccc(N2CCC(N3CCC4(CCNC(=O)CC4)CC3)CC2)cc1Cl	11	-1.61
O=C(Nc1nc2ccccc2[nH]1)C1CCC1	1	-0.1
O=c1[nH]c2ccc(NS(=O)(=O)c3ccc(Br)cc3)cc2s1	-10	1.22
Cc1cc(S(=O)(=O)N2CCC3(CCNC(=O)CC3)CC2)ccc1F	-13	2.29
COc1ccccc1-c1noc(C[C@@H]2C(=O)Nc3cc(F)ccc32)n1	1	-0.21
COc1cccc(OC)c1OCc1nc(C(=O)NCc2ccccn2)cs1	-2	0.34
CC(C)(CNC(=O)[C@H]1CC1(Cl)Cl)N1CCOCC1	-5	0.65
Cc1cnc(C(C)NC(=O)NC(C)(CO)C2CCCCC2)s1 (stereo not drawn)	2	-0.29
CC(=O)N1CCc2c(sc(NC(=O)c3cc(-c4ccccc4)nc4ccccc34)c2C(N)=O)C1	5	-0.79
N#Cc1cc(C(=O)NCc2cccc(NC(=O)N3CCCC3)c2)c[nH]1	-10	1.12
CCN1CCO[C@H](c2nnc(COc3ccc4ccccc4c3)o2)C1	-8	0.86
